Measured values taken from PubChem BioAssay (Tox21).
“And” between values parts separate entries of the source, which are not always exact repeats. Equal values may be shown once. The shares of active, inactive and inconclusive entries below differ from those in the screen. Potencies beside an inconclusive call are fits to weak or partial responses and may not hold up. The source made the active and inactive calls. Unless noted, the call rests on the fitted dose curve; in most records, active means well fitted curve in the direction sought with a large enough effect in the repeat runs; inconclusive means weak or mixed curves; inactive means no such curve, though single readings can be large; an effect the other way counts as inactive or inconclusive.

Experiments:
[1] = qHTS assay for small molecule agonists of the p53 signaling pathway (AID 651631; calls by dose curve; further: nearly all actives have a fitted effect of over 15% in size; on activation: on the % scale 0 is the no-effect control and ±100 the full control effect); details: HCT-116 p53RE-bla reporter, beta-lactamase FRET ratio, 16 h; activation: at 73.3 µM (top of the series) unless noted
How it was run: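 We treat p53RE-bla HCT-116 cells with compounds for 16 h at 37 °C, add LiveBLAzer B/G FRET substrate for 2 h at room temperature, and measure fluorescence intensity.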

[2] = qHTS assay for small molecules that induce genotoxicity in human embryonic kidney cells expressing luciferase-tagged ATAD5 (AID 651632); details: HEK293T ATAD5-luciferase induction, 16 h; series mostly up to 83.3 µM; further: nearly all actives have a fitted effect of over 15% in size
How it was run: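 HEK293T cells carrying a luciferase reporter tagged to ATAD5 were exposed to compound or DMSO vehicle for 16 hr at 37C, 5% CO2. Amplite was added, and after 30 min at room temperature luciferase activity was read as a marker of ATAD5 induction.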

[3] = qHTS assay for small molecule agonists of the p53 signaling pathway - cell viability (AID 651633; calls by dose curve; further: nearly all actives have a fitted effect of over 30% in size); details: p53RE-bla HCT-116 viability, ATP luminescence, 16 h; series mostly up to 83.3 µM
How it was run: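 p53RE-bla cells were treated with compound for 16 hours at 37 C. Cytotoxicity was then measured as CellTiter-Glo luminescence after 30 min at room temperature.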

[4] = qHTS assay for small molecule disruptors of the mitochondrial membrane potential - cell viability (AID 720634; calls by dose curve; further: nearly all actives have a fitted effect of over 20% in size); details: HepG2 viability, ATP luminescence (CellTiter-Glo), 1 h; series mostly up to 83.2 µM
How it was run: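 HepG2 cells seeded overnight at 37 C, then exposed to compound or DMSO for 1 hr at 37 C, 5% CO2. m-MPI dye added, then CellTiter-Glo for 30 min at room temperature; viability read as ATP luminescence.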

[5] = target: Glucocorticoid receptor (Homo sapiens) (UniProt P04150); test: qHTS assay to identify small molecule antagonists of the glucocorticoid receptor (GR) signaling pathway (AID 720692; active means well fitted inhibition curve with a large enough effect in the signal ratio in the repeat runs, not every such curve was filed as active; inconclusive means weak or mixed curves, or effect the other way; inactive means no such curve, though single readings can be large or run the other way; the % refers to the signal ratio; on activity change, negative = inhibition: on the % scale 0 is the no-effect control and ±100 the full control effect); details: GR-bla HeLa, beta-lactamase FRET ratio, dexamethasone-stimulated, 18 h; activity change, negative = inhibition: at 58.5 µM (top of the series) unless noted
How it was run: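 GR-bla HeLa cells (beta-lactamase reporter under glucocorticoid response element) were pre-plated 4 h at 37 C, treated with compounds plus 5 nM dexamethasone (final) for 18 h, then read by LiveBLAzer B/G FRET fluorescence after 2 h.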

[6] = qHTS assay to identify small molecule antagonists of the glucocorticoid receptor (GR) signaling pathway - cell viability counter screen (AID 720693); details: GR-bla HeLa viability, CellTiter-Glo luminescence, 18 h, with 5 nM dexamethasone present; viability change, negative = cytotoxic: at 58.5 µM (top of the series) unless noted; further: nearly all actives have a fitted effect of over 55% in size
[7] = qHTS assay for identifying genotoxic compounds that show differential cytotoxicity against isogenic chicken DT40 cell lines with known DNA damage response pathways - Rev3 mutant cell line (AID 743014); details: chicken DT40 Rev3-/- viability, CellTiter-Glo, 40 h; activity, negative = cytotoxicity: at 68.4 µM (top of the series); further: nearly all actives have a fitted effect of over 55% in size
[8] = qHTS assay to identify small molecule antagonists of the androgen receptor (AR) signaling pathway - cell viability counter screen (AID 743033; further: nearly all actives have a fitted effect of over 45% in size); details: AR-bla HEK293 viability, CellTiter-Glo luminescence, 16 h; activity change, negative = cytotoxicity: at 58.5 µM (top of the series)
[9] = qHTS assay for small molecule disruptors of the mitochondrial membrane potential (AID 720635); details: HepG2 mitochondrial membrane potential, Mito-MPS dye ratio; ratio activity, negative = MMP loss: at 83.2 µM (top of the series) unless noted
How it was run: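 HepG2 cells exposed to compound 1 hr at 37C, then Mito-MPS dye 30 min. Ratio read of aggregate (540/590 nm) versus monomer (490/535 nm) fluorescence.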

[10] = qHTS assay for identifying genotoxic compounds that show differential cytotoxicity against isogenic chicken DT40 cell lines with known DNA damage response pathways - wild type cell line (AID 743012); details: DT40 wild type chicken cells viability, CellTiter-Glo, 40 h; activity change, negative = cytotoxicity: at 68.4 µM (top of the series) unless noted; further: nearly all actives have a fitted effect of over 60% in size
How it was run: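 Parental DNA repair-proficient DT40 cells, 300 per well, were pre-incubated ~0.5 h at 37 C/5% CO2, pin-dosed with compounds in DMSO, then incubated 40 h. Viability was read as CellTiter-Glo luminescence after 30 min at room temperature.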
Potency means the concentration at half of the fitted maximal effect; tags describe the fitted curve by direction and shape or compound fluorescence and quenching.

Chain of UniProt P04150 (P04150 whole entry, looked up): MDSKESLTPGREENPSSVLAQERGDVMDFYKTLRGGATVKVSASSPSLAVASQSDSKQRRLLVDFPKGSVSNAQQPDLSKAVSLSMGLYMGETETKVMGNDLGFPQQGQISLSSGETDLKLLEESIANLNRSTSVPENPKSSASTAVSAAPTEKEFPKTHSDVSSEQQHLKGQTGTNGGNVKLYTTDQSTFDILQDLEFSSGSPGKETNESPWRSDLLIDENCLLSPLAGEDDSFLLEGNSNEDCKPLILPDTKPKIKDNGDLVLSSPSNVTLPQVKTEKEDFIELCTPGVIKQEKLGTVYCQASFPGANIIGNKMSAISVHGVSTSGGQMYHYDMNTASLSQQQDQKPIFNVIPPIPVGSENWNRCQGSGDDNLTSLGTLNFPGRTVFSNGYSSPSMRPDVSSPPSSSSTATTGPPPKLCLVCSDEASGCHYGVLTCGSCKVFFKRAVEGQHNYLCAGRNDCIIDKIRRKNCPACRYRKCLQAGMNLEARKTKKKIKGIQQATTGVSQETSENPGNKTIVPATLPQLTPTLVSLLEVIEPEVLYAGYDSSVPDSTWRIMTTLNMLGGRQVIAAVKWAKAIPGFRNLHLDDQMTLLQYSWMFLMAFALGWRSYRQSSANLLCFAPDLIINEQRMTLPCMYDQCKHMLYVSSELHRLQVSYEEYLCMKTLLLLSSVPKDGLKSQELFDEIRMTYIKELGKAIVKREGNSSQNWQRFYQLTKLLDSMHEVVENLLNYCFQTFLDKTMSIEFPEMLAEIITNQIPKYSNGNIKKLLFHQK

SMILES	Potency [1]	Potency [2]	Potency [3]	Potency [4]	Potency [5]	Potency [6]	Potency [7]	Potency [8]	activation [1]	Potency [9]	activity change, negative = inhibition [5]	Potency [10]
Nc1ccc([N+](=O)[O-])cc1	inconclusive: 0.243 µM [activator, single point]	inconclusive: 8.63 µM [activator, partial curve]	inconclusive: 61.1 µM [cytotoxic, single point]	inconclusive: 48.6 µM [cytotoxic, partial curve]	inconclusive: 13.8 µM [activator]	inconclusive: 61.6 µM [cytotoxic, single point]	active: 13.3 µM	active: 54.9 µM	–	–	–	–
O=C(CCl)CCl	active: 24.3 µM	inconclusive: 25.2 µM [activator, partial curve, poor fit] and inconclusive: 17.2 µM [activator, partial curve]	inconclusive: 27.3 µM [cytotoxic]	inconclusive: 71.1 µM [cytotoxic, single point] and inconclusive: 68.6 µM [cytotoxic, single point]	active: 43.6 µM	inconclusive: 63.9 µM [cytotoxic, partial curve, poor fit]	inconclusive: 7.11 µM [cytotoxic, full curve]	inconclusive: 49 µM [cytotoxic, single point]	inconclusive: -3.83% [at 95.1 µM]	inconclusive: 50.3 µM [inhibitor, partial curve] and inconclusive: 68.6 µM [inhibitor]	inconclusive: -47.4% [at 78.9 µM]	inconclusive: 5.03 µM [rising, full curve]
